# Experimental data as given in PubChem BioAssay AID588453 (National Center for Advancing Translational Sciences (NCATS), 2011).
# Several values for one entry are separate records, joined by “and”; a condition that tells them apart may be missing. Identical values can stand only once. The campaign covered roughly 390,000 compounds. About 4,000 (1%) were called active. Inconclusive means that the source gave no clear call. Such entries were picked first, then a sample of the others. Calls follow the shape of the dose curve; as a rule, active = well fitted inhibition curve with a large enough effect; inconclusive = small, poorly fitted or top-dose-only effect; inactive = no such curve, though single readings can be large or run the other way. A potency beside an inconclusive call is a rough fit, not a confirmed value.
# Target: Thioredoxin reductase 1, cytoplasmic (Rattus norvegicus) (UniProt O89049)
# Assay: qHTS Assay for Inhibitors of Mammalian Selenoprotein Thioredoxin Reductase 1 (TrxR1): qHTS; also: nearly all actives have a fitted effect of over 65% in size
# Settings: recombinant rTrxR1, NADPH fluorescence consumption, selenite substrate; series mostly up to 114 µM; activity change, negative = inhibition: at the top concentration
# How it was run: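 Rat TrxR1 (90 nM in the dispensed reagent) was pre-reduced with 400 uM NADPH for 5 min at room temperature, then incubated with compound for 15 min. After 400 uM selenite was added, NADPH fluorescence (Ex 340/Em 450 nm) was followed for 8 min.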
# % is scaled to controls: 0 for no effect and ±100 for the full control effect; potency is read from the fitted curve at half-maximal effect; tags tell the direction and shape of the fitted curve.
# UniProt O89049, sequence (O89049 whole entry, looked up): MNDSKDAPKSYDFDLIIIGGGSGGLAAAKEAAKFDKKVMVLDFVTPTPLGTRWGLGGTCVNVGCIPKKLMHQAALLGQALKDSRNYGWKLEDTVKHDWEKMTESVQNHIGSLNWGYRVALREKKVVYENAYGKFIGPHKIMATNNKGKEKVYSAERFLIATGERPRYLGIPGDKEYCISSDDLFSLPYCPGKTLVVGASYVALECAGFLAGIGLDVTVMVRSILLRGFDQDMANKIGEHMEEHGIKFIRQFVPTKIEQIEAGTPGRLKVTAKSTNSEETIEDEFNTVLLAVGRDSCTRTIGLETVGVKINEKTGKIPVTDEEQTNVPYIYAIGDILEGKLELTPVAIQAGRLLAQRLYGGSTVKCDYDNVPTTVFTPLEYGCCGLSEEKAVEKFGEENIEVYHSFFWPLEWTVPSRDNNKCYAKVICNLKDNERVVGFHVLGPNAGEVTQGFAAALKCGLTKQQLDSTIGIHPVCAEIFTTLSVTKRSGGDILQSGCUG
Structure (SMILES),"activity change, negative = inhibition",Potency
Cc1ccc(S(=O)(=O)NCc2ccccn2)cc1C,inactive: 13.3%,–
CCNC(=O)O/N=C(\C)c1sc(-c2ccc(Cl)cc2)nc1C,inactive: 13.8% [at 57.1 µM],–
Cc1ccccc1-n1nc(C)c2c1N=C1C(Cl)=CC(Cl)=CN1C2c1ccc(C(=O)O)cc1 (configuration not stated),–,active: 12.6 µM
COc1cc(OC)c(C2CC(=O)N3CN(c4ccc(C)cc4)CSC3=C2C#N)cc1OC (configuration not stated),–,"inconclusive: 12.6 µM [inhibitor, full curve, poor fit]"
Cc1ccc([N+](=O)[O-])cc1S(=O)(=O)N1CCC(C)CC1,inactive: 17.2% [at 57.1 µM],–
CC1CN(C(=O)COc2ncnc3ccccc23)CC(C)O1 (configuration not stated),inactive: -2.72%,–
CCCCCCNC(=O)N[C@@H](C(=O)NCCC[C@H]1CN2C(=NC[C@@H]2Cc2ccccc2)N1CCc1cccc(OC)c1)C(C)C,–,"inconclusive: 22.4 µM [inhibitor, partial curve, poor fit]"
COc1cc(CNc2ccc(N3CCCCC3)cc2)ccc1OCC(=O)NC(C)(C)C,inactive: -21.2%,–
O=C(COc1ccc(S(=O)(=O)N2CCCC2)cc1Cl)NCc1ccco1,–,"inconclusive: 17.8 µM [inhibitor, partial curve]"
O=C1/C(=C\c2ccc(-c3ccccc3Cl)o2)SC(=S)N1CC1CCCO1 (configuration not stated),–,"inconclusive: 25.1 µM [inhibitor, single point]"
O=C(NCCN1CCCC1)c1ccccc1Cl,inactive: 17.3%,–
Cc1oc(-c2ccccc2)nc1CS(=O)CC(=O)NC1CCCCCC1 (configuration not stated),–,active: 31.6 µM
CCCOc1ccc(C(=O)Nc2ccc3oc(-c4cccc(Cl)c4Cl)nc3c2)cc1,inactive: 37.6%,–
CS(=O)(=O)c1ccccc1C(=O)N(CCC1=CCCCC1)c1c(N)n(Cc2ccccc2)c(=O)[nH]c1=O,inactive: -3.04%,–
Cc1c(C)c(C)c(CO/N=C/c2cccs2)c(C)c1C,–,"inconclusive: 1.41 µM [inhibitor, single point]"
COc1ccc(C(=O)Nc2nc3n(n2)C(c2ccccc2)C=C(c2ccccc2)N3)cc1 (configuration not stated),–,"inconclusive: 35.5 µM [inhibitor, single point]"
O=C(O)c1cc(-c2ccco2)nn1-c1cccc(Cl)c1,–,"inconclusive: 25.1 µM [inhibitor, partial curve]"
COC(=O)CSc1nnc(-c2ccco2)n1Cc1ccco1,–,"inconclusive: 11.2 µM [inhibitor, full curve]"
CN(C)c1nc(N2CCN(c3ccc(F)cc3)CC2)c(C#N)c(=O)o1,inactive: 22%,–
CC(=C1C(=O)c2ccccc2C1=O)N1CCC(C(N)=O)(N2CCCCC2)CC1,–,"inconclusive: 22.4 µM [inhibitor, single point]"
O=C(O)/C=C/C(=O)Nc1ccccc1-c1ccccc1NC(=O)/C=C/C(=O)O,–,"inconclusive: 20 µM [inhibitor, partial curve]"
CN(/C=C/C(=C/C=[N+](C)c1ccccc1)OCCCS(=O)(=O)[O-])c1ccccc1,–,"inconclusive: 28.2 µM [inhibitor, partial curve, poor fit]"
N#Cc1ccc(CN2CCN(C(=O)c3ccc(S(=O)(=O)NCc4ccco4)cc3)CC2)cc1,inactive: -29.6%,–
Cc1ccc(NC(=S)NCc2ccc(S(N)(=O)=O)cc2)c(C)c1,–,"inconclusive: 25.1 µM [inhibitor, partial curve, poor fit]"

Structure (SMILES),"activity change, negative = inhibition",Potency
Cc1cc(O)ccc1N/C=C1\CCCC1=O,–,"inconclusive: 31.6 µM [inhibitor, partial curve]"
Cc1ccc(-c2nc(=S)c3c(n2Cc2ccco2)CCCC3)cc1,–,"inconclusive: 25.1 µM [inhibitor, partial curve, poor fit]"
O=C(c1ccc(Cl)cc1)C(CN1CCCCC1)c1ccccc1 (configuration not stated),–,active: 25.1 µM
Cc1ccc(NC(=O)c2oc3ccccc3c2NC(=O)c2ccc(F)c(F)c2)cc1,–,"inconclusive: 89.1 µM [inhibitor, single point]"
CCOC(=O)Cn1nc(-c2ccc(Cl)cc2)ccc1=O,–,"inconclusive: 25.1 µM [inhibitor, single point]"
CCCn1c(N)c(C(=O)CSc2nc(C)cs2)c(=O)n(C)c1=O,inactive: -11.6%,–
C1=Nc2ccccc2CN1c1ccccc1,inactive: -0.956%,–
CCCSc1nc(NCc2ccco2)c2c3c(sc2n1)COC(C)(C)C3,–,active: 44.7 µM
COc1ccc(S(=O)(=O)N2CN(Cc3ccco3)c3nc4ccccc4nc32)cc1,–,active: 35.5 µM
CC(NC(=O)COC(=O)c1ccc([N+](=O)[O-])o1)c1ccccc1 (configuration not stated),–,"inconclusive: 50.1 µM [inhibitor, partial curve]"
CCCCCCNC(=O)c1c(O)c2cccc3c2n(c1=O)CCC3,inactive: 7.72%,–
CC(=O)c1ccc(NC(=S)NC(=O)c2c(Cl)c(C)nn2C)cc1,–,"inconclusive: 3.98 µM [inhibitor, full curve]"
N#CC1=C(N)SC(N)=C(C#N)C1c1cccc(O)c1,–,"inconclusive: 17.8 µM [inhibitor, full curve, poor fit]"
CC(=O)NS(=O)(=O)c1ccc(NC(=O)CCC(=O)Oc2ccc(C)cc2)cc1,inactive: -5.82%,–
N#CC(C#N)=Cc1ccc(OC(=O)c2ccccn2)cc1,–,active: 12.6 µM
CCCCC(=O)Nc1ccc(C(N)=O)cc1,inactive: 2.42%,–
CCC/C=C1/CCCOC(C(=O)NCCNCCO)(C(F)(F)F)C1 (configuration not stated),–,"inactive and inconclusive: 63.1 µM [inhibitor, single point]"
COc1ccc(C2C(C#N)=C(N)Oc3cc(N)ccc32)cc1OC (configuration not stated),–,"inconclusive: 50.1 µM [inhibitor, partial curve]"
COc1ccc2c(c1)CCc1cn3nc(C)cc3nc1-2,–,"inconclusive: 35.5 µM [inhibitor, single point]"
Cc1nc2sc(C(c3ccco3)N3CCC4(CC3)OCCO4)c(O)n2n1 (configuration not stated),–,"inconclusive: 7.94 µM [inhibitor, partial curve, poor fit]"
COc1ccc(NC(=S)NC(=O)c2ccccc2)cn1,–,"inconclusive: 31.6 µM [inhibitor, full curve]"
CNS(=O)(=O)c1ccc2c(c1)NC(=O)C1CCCN21 (configuration not stated),–,"inconclusive: 7.94 µM [inhibitor, full curve]"
Cc1oc2c(cc(NS(=O)(=O)c3ccc(F)cc3)c3ccccc32)c1C(=O)O,inactive: -2.34%,–
